The values that follow come from the supplement of paper PMC9334596.

For this test, the system named is mPer2Luc MEF. The test can be described thus: PER2::LUC luminescence relative to vehicle control (fold of vehicle); higher = higher PER2::LUC reporter signal. Particulars: 10 µM. The procedure, abridged:
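Mouse embryonic fibroblasts carrying the mPer2Luc reporter were seeded at ~3000 cells per well in 384-well plates, 48 h before compounds from commercial libraries were added at 10 μM. Cells were grown in DMEM with 10% FBS at 37 °C and 5% CO2. Luminescence was read with the ONE-Glo luciferase assay system 24 h and 30 h after treatment, followed by an alamarBlue viability assay. The value is PER2::LUC luminescence as fold of vehicle control.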

Each structure is given as a SMILES string. Where “and” joins values, the source holds several entries; their conditions need not be identical. Equal entries are not always repeated. Whole data set: some 5,300 compounds, median “PER2::LUC luminescence relative to vehicle control” near 0.96, cut for the highest 2% near 1.3. This is one part of the list.

As for `CC(=O)Nc1ccc(S(=O)(=O)Nc2ccc([N+](=O)[O-])cc2)cc1`, the “PER2::LUC luminescence” value came to 1.01 (time after treatment 24 h) and 1.08 (time after treatment 30 h).

Take `CN(N=O)C(=O)N[C@@H](C=O)[C@@H](O)[C@H](O)[C@H](O)CO`: the “PER2::LUC luminescence” value (time after treatment 24 h) was 0.736 and the “PER2::LUC luminescence” value (time after treatment 30 h) was determined as 0.663.

As for `O=C1Nc2cc(Br)ccc2/C1=C1/Nc2ccccc2/C1=N\O`, the “PER2::LUC luminescence” value is, setting by setting: (time after treatment 24 h) 0.773; (time after treatment 30 h) 1.09.

As to `C[C@@H](O)[C@H]1C(=O)N2C(C(=O)O)=C(SC3CN(C4=NCCS4)C3)[C@H](C)[C@H]12`, the “PER2::LUC luminescence” value by setting is: (time after treatment 24 h) 1.03; (time after treatment 30 h) 1.01.

As to `Cn1cc(C2=C(c3ccc(Cl)cc3Cl)C(=O)NC2=O)c2ccccc21`, the “PER2::LUC luminescence” value reads like this: (time after treatment 24 h) 1.02; (time after treatment 30 h) 1.05.

Consider `N#CC(c1ccnc(NCCc2cccnc2)n1)c1nc2ccccc2s1` (configuration not stated), for which the “PER2::LUC luminescence” value (time after treatment 24 h) was determined as 0.469 and the “PER2::LUC luminescence” value (time after treatment 30 h) is 0.931.

In the case of `O=C(NC(NC(=S)Nc1ccc(F)c([N+](=O)[O-])c1)C(Cl)(Cl)Cl)C(c1ccccc1)c1ccccc1` (configuration not stated), the “PER2::LUC luminescence” value (time after treatment 24 h) amounted to 0.218 and the “PER2::LUC luminescence” value (time after treatment 30 h) worked out at 0.267.

On to `Nc1ncnc2c1ncn2[C@@H]1O[C@H](COP(=O)(O)CP(=O)(O)OP(=O)(O)O)[C@H](O)C1O` (some centres not stated), for which the “PER2::LUC luminescence” value turned out to be 0.973 (time after treatment 24 h) and 0.905 (time after treatment 30 h).

As to `CC(Cc1ccccc1)Nc1ncnc2c1ncn2C1OC(CO)C(O)C1O` (single isomer, unassigned; (-)), the “PER2::LUC luminescence” value is, setting by setting: (time after treatment 24 h) 0.925; (time after treatment 30 h) 0.965.

Consider `O=C(N/N=C/c1ccc([N+](=O)[O-])o1)c1ccc(O)cc1`, for which the “PER2::LUC luminescence” value runs as follows: (time after treatment 24 h) 1.03; (time after treatment 30 h) 0.967.

Consider `Cc1cccc(Nc2cc(Cl)nc(SCC(=O)O)n2)c1C`, for which the “PER2::LUC luminescence” value by setting is: (time after treatment 24 h) 1.23; (time after treatment 30 h) 1.01.

On to `CCOc1cc2ncc(C#N)c(Nc3ccc(OCc4ccccn4)c(Cl)c3)c2cc1NC(=O)/C=C/CN(C)C`, for which the “PER2::LUC luminescence” value amounted to 0.655 (time after treatment 24 h) and 0.6 (time after treatment 30 h).

On to `Cc1cc(NC(=O)c2cccc(NC(=O)/C=C/CN(C)C)c2)ccc1Nc1nccc(-c2cccnc2)n1`, for which the “PER2::LUC luminescence” value turned out to be 0.423 (time after treatment 24 h) and 0.385 (time after treatment 30 h).

For the compound `Cc1ccc(C(C)C)cc2c(C)ccc1-2`, the “PER2::LUC luminescence” value reads like this: (time after treatment 24 h) 0.949; (time after treatment 30 h) 0.913.

For the compound `CN1CCN(C(c2ccccc2)c2ccc(Cl)cc2)CC1` (configuration not stated), the “PER2::LUC luminescence” value was 0.668 (time after treatment 24 h) and 0.74 (time after treatment 30 h).

For `Cc1cn([C@@H]2C[C@@H](O)[C@H](CO)O2)c(=O)[nH]c1=O`, the “PER2::LUC luminescence” value reads like this: (time after treatment 24 h) 0.8 and 0.746; (time after treatment 30 h) 0.789 and 0.823.

As for `NC(=O)c1ncn([C@@H]2O[C@H](CO)[C@@H](O)[C@H]2O)c1O`, the “PER2::LUC luminescence” value reads like this: (time after treatment 24 h) 1.01; (time after treatment 30 h) 1.05.

In the case of `Cn1cnc2c(ncn2[C@@H]2O[C@H](CO)[C@@H](O)[C@H]2O)c1=N`, the “PER2::LUC luminescence” value reads like this: (time after treatment 24 h) 0.94; (time after treatment 30 h) 1.

Regarding `Cc1ccc(S(=O)(=O)NCl)cc1`, the “PER2::LUC luminescence” value was 1.03 (time after treatment 24 h) and 0.939 (time after treatment 30 h).

Take `Cn1c(=O)c2[nH]c(-c3ccc(S(=O)(=O)O)cc3)nc2n(C)c1=O`: the “PER2::LUC luminescence” value is, setting by setting: (time after treatment 24 h) 1.08; (time after treatment 30 h) 0.98.

Turning to `C[C@@H]1O[C@@H]1P(=O)(O)O`, the “PER2::LUC luminescence” value runs as follows: (time after treatment 24 h) 1.04 and 0.887; (time after treatment 30 h) 0.997 and 1.05.

Consider `C[C@@H]1CN(c2c(F)c(N)c3c(=O)c(C(=O)O)cn(C4CC4)c3c2F)C[C@H](C)N1`, for which the “PER2::LUC luminescence” value is, setting by setting: (time after treatment 24 h) 1.14; (time after treatment 30 h) 1.03.

In the case of `CN=C(N)NCCC[C@H](N)C(=O)O`, the “PER2::LUC luminescence” value (time after treatment 24 h) is 0.857 and the “PER2::LUC luminescence” value (time after treatment 30 h) is 0.894.

For the compound `Nc1ncnc2c1ncn2[C@@H]1O[C@H](CSCC[C@H](N)C(=O)O)[C@@H](O)[C@H]1O`, the “PER2::LUC luminescence” value by setting is: (time after treatment 24 h) 0.947; (time after treatment 30 h) 0.977.

Regarding `CCNC(=O)c1noc(-c2cc(Cl)c(O)cc2O)c1-c1ccc(OC)cc1`, the “PER2::LUC luminescence” value by setting is: (time after treatment 24 h) 0.082; (time after treatment 30 h) 0.07.

As to `CCCCCCCCCCC(C)(C)C(=O)Nc1c(OC)cc(OC)cc1OC`, the “PER2::LUC luminescence” value (time after treatment 24 h) came to 0.964 and the “PER2::LUC luminescence” value (time after treatment 30 h) stood at 0.972.

For `CC#CCOC(=O)c1c(C)nc2sc3c(c2c1N)CCC(O)C3` (configuration not stated), the “PER2::LUC luminescence” value reads like this: (time after treatment 24 h) 1.03; (time after treatment 30 h) 0.812.

On to `CCCCC(=O)Oc1ccccc1C(=O)O`, for which the “PER2::LUC luminescence” value was found to be 0.993 (time after treatment 24 h) and 1.03 (time after treatment 30 h).

Consider `CC[C@]12CCCN3CCc4c(n(c5ccccc45)C(=O)C1)[C@@H]32`, for which the “PER2::LUC luminescence” value is 0.939 and 0.983 (time after treatment 24 h); 1.02 and 0.866 (time after treatment 30 h).

As to `N#CN=C(NCCCCCCOc1ccc(Cl)cc1)Nc1ccncc1`, the “PER2::LUC luminescence” value runs as follows: (time after treatment 24 h) 0.751; (time after treatment 30 h) 0.551.

As to `CCn1cc(C(=O)O)c(=O)c2cc(F)c(N3CCN(C)CC3)cc21`, the “PER2::LUC luminescence” value is, setting by setting: (time after treatment 24 h) 0.994 and 1.02; (time after treatment 30 h) 1.12 and 1.08.

Consider `CCn1cc(C(=O)O)c(=O)c2cc(F)c(N3CCNC(C)C3)c(F)c21` (configuration not stated), for which the “PER2::LUC luminescence” value was 1.1 and 0.956 (time after treatment 24 h); 0.923 and 0.892 (time after treatment 30 h).

For `COc1cc(C)nc(-n2nc(C)cc2OC)n1`, the “PER2::LUC luminescence” value was determined as 1.04 (time after treatment 24 h) and 1.11 (time after treatment 30 h).

Regarding `CS(=O)(=O)Nc1ccc([N+](=O)[O-])cc1Oc1ccccc1`, the “PER2::LUC luminescence” value (time after treatment 24 h) is 1.14 and the “PER2::LUC luminescence” value (time after treatment 30 h) turned out to be 0.947.

As for `C=CC(=O)Nc1cccc(Nc2nc(Nc3ccc(NC4CN(CCF)C4)cc3OC)ncc2C(F)(F)F)c1`, the “PER2::LUC luminescence” value came to 0.3 (time after treatment 24 h) and 0.262 (time after treatment 30 h).

On to `NCC(O)c1ccc(O)c(O)c1` (configuration not stated), for which the “PER2::LUC luminescence” value is, setting by setting: (time after treatment 24 h) 1.47; (time after treatment 30 h) 1.55.

Regarding `O=c1ccc2c(OCCCCc3ccccc3)c3ccoc3cc2o1`, the “PER2::LUC luminescence” value by setting is: (time after treatment 24 h) 0.999; (time after treatment 30 h) 0.987.

Consider `CCC1=C[C@@H]2CN(C1)Cc1c([nH]c3ccccc13)[C@@](C(=O)OC)(c1cc3c(cc1OC)N(C)[C@H]1[C@@](O)(C(=O)OC)[C@H](OC(C)=O)[C@]4(CC)C=CCN5CC[C@]31[C@@H]54)C2`, for which the “PER2::LUC luminescence” value reads like this: (time after treatment 24 h) 0.282 and 0.208; (time after treatment 30 h) 0.342 and 0.24.

With `CCn1c(=O)[nH]c2ccccc21`, the “PER2::LUC luminescence” value is, setting by setting: (time after treatment 24 h) 0.773; (time after treatment 30 h) 0.839.

Consider `CNC(=C[N+](=O)[O-])NCCSCc1csc(CN(C)C)n1`, for which the “PER2::LUC luminescence” value runs as follows: (time after treatment 24 h) 1.05; (time after treatment 30 h) 1.05.

Turning to `O=C(O)C1=CCNCC1`, the “PER2::LUC luminescence” value (time after treatment 24 h) was 1.03 and the “PER2::LUC luminescence” value (time after treatment 30 h) was 1.14.

Turning to `OCc1ccccc1`, the “PER2::LUC luminescence” value by setting is: (time after treatment 24 h) 1.11; (time after treatment 30 h) 0.99.

In the case of `CN1CCN(C2=Nc3ccccc3Sc3ccc(Cl)cc32)CC1`, the “PER2::LUC luminescence” value is 1.06 (time after treatment 24 h) and 1 (time after treatment 30 h).

For the compound `CC1(C)[C@@H](O[C@H]2O[C@H](C(=O)O)[C@@H](O)[C@H](O)[C@H]2O[C@@H]2O[C@H](C(=O)O)[C@@H](O)[C@H](O)[C@H]2O)CC[C@]2(C)[C@H]3C(=O)C=C4[C@@H]5C[C@@](C)(C(=O)O)CC[C@]5(C)CC[C@@]4(C)[C@]3(C)CC[C@@H]12`, the “PER2::LUC luminescence” value reads like this: (time after treatment 24 h) 0.967 and 0.965 and 0.915; (time after treatment 30 h) 0.967 and 0.915 and 0.909.

Regarding `COc1cc2nccc(Oc3ccc(NC(=O)Nc4ccc(F)cc4F)c(F)c3)c2cc1OC`, the “PER2::LUC luminescence” value by setting is: (time after treatment 24 h) 0.785; (time after treatment 30 h) 0.689.

As to `C[C@]12C=CC(=O)C=C1CC[C@@H]1[C@@H]2C(=O)C[C@@]2(C)[C@H]1CC[C@]2(O)C(=O)CO`, the “PER2::LUC luminescence” value was found to be 1.02 (time after treatment 24 h) and 1.08 (time after treatment 30 h).

As to `C[C@]12C=CC(=O)C=C1CC[C@@H]1C2=CC[C@]2(C)[C@@H](C(=O)CN3CCN(c4cc(N5CCCC5)nc(N5CCCC5)n4)CC3)CC[C@@H]12`, the “PER2::LUC luminescence” value by setting is: (time after treatment 24 h) 0.972; (time after treatment 30 h) 1.02.

`Nc1ncnc2nc(-c3ccc(N4CCOCC4)nc3)cc(-c3cccc(Br)c3)c12`: the “PER2::LUC luminescence” value runs as follows: (time after treatment 24 h) 0.907; (time after treatment 30 h) 0.868.

With `c1ccc2c(Oc3nc(Nc4ccc(N5CCOCC5)cc4)c4ncn(C5CCCCC5)c4n3)cccc2c1`, the “PER2::LUC luminescence” value by setting is: (time after treatment 24 h) 1.04; (time after treatment 30 h) 1.08.

Consider `CCOC(=O)CCC(=O)O[C@H]1[C@H](O[C@@H]2[C@@H](C)[C@H](O[C@H]3C[C@@](C)(OC)[C@@H](O)[C@H](C)O3)[C@@H](C)C(=O)O[C@H](CC)[C@@](C)(O)[C@H](O)[C@@H](C)C(=O)[C@H](C)C[C@@]2(C)O)O[C@H](C)C[C@@H]1N(C)C`, for which the “PER2::LUC luminescence” value by setting is: (time after treatment 24 h) 0.927; (time after treatment 30 h) 0.998.

For `COc1cc(NC(=O)c2ccc(-c3ccc(Cl)cc3)o2)cc(OC)c1`, the “PER2::LUC luminescence” value was 0.947 (time after treatment 24 h) and 1.04 (time after treatment 30 h).
